About 2,200 (0.71%) of roughly 310,000 compounds showed an effect of 50% or more. The effect is printed as a negative number. The list shows a part of the results.
biological target: human ether-à-go-go-related gene (hERG) potassium channel (human, UniProt Q12809); assay: primary screen, population patch clamp on CHO cells stably expressing hERG
Sequence (Q12809 whole entry, looked up): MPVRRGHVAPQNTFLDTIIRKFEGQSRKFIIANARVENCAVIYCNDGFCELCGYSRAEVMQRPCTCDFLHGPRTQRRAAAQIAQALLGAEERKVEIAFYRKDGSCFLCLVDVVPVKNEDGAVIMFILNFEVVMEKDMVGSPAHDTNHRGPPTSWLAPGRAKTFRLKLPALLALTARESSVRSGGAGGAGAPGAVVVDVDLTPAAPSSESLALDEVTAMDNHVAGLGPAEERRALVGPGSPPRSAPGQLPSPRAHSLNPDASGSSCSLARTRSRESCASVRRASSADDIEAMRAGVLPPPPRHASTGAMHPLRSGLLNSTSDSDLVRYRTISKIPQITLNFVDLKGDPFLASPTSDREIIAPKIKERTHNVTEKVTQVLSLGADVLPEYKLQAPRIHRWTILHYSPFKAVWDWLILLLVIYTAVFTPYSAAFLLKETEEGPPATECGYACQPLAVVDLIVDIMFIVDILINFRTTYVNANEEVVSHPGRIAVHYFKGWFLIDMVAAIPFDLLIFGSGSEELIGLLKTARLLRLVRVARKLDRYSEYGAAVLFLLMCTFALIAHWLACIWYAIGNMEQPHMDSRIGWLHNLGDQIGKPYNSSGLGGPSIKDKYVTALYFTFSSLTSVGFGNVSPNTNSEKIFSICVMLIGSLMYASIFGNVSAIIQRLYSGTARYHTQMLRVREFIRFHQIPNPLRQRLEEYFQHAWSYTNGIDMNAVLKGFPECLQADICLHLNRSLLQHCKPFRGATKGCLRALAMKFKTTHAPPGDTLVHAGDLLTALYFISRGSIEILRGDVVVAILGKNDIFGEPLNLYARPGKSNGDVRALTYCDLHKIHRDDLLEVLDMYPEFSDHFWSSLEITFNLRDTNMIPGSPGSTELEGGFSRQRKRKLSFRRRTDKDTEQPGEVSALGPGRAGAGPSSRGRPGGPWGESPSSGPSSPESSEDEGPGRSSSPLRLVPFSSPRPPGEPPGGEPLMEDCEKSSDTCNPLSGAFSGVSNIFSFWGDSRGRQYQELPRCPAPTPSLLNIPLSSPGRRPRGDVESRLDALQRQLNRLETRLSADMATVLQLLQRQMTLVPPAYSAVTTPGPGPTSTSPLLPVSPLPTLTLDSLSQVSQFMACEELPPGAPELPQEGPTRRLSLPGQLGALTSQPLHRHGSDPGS

SMILES | hERG current change (%, negative = inhibition) at 1uM
CCN1C(=O)[C@H]2[C@@H](c3ccc(C)cc3)N3C(=O)N(c4ccccc4)C(=O)[C@@]3(CC)[C@H]2C1=O | 13.8%
O=C(O)C(=O)O.c1cc(CN2CCN(C3CCCCCC3)CC2)ccn1 | 2.88%
O=C(CCCCCN1C(=O)CCC1=O)Nc1ccc2c(c1)OCCO2 | 6.37%
CCOc1cc2c3c(c1)C(C)CC(C)(C)N3C(=O)C2=O (centres unmarked) | -6.3%
COc1ccc(NC(=O)CN(C)C(=O)C2CC(=O)N(c3cccc4ccccc34)C2)cc1 (centres unmarked) | 13.9%
O=C(CC(SCCO)c1ccc2c(c1)OCO2)c1ccco1 (centres unmarked) | 5.32%
Cc1cccc(NC(=O)NCCc2c[nH]c3ccccc23)c1 | -0.241%
CCOC(=O)Cc1csc(NC(=O)Cc2cccs2)n1 | 8.62%
CCOc1ccc(C(C)=O)cc1COC(=O)C1=COCCO1 | -0.905%
O=C(NCc1nc2ccccc2[nH]1)C1=C[C@@H](c2ccccc2)C[C@@H](OCc2ccc(CO)cc2)O1 | 10.1%
CCCOc1ccccc1C(=O)Nc1ccc(S(=O)(=O)N2CCN(C)CC2)cc1 | 12.9%
Cc1ccc(-c2cnc(NC(=O)CCC(=O)N3CCCCC3)n2C)cc1 | 0.1%
CC1(C)CC2(CCO1)OC(=O)CC2C(=O)Nc1ccc(Br)cc1 (centres unmarked) | 9.49%
CCc1ccc(C2=CC(c3cc(Br)ccc3F)n3ncnc3N2)cc1 (centres unmarked) | 10%
CC1CCCCC1NC(=O)CN1CCC(O)(c2ccc3c(c2)OCO3)CC1 (centres unmarked) | 1%
Cc1cc([N+](=O)[O-])c(-c2ccc(/C=N/n3cnnc3)o2)cc1Cl | 5.27%
CSc1ncc(Cl)c(C(=O)Nc2cccc(Cl)c2)n1 | 11.2%
Cc1ncc(C[n+]2csc(C)c2C)c(N)n1.Cl.[Cl-] | 16%
Cc1ccccc1-c1nc(CN2CCCC2c2ccc(F)cc2)c(C)o1 (centres unmarked) | 13.1%
c1ccc(Nc2nc3ccccc3n3nnnc23)cc1 | 0.684%
COc1cc(C(=O)OCCCN(C)C)cc(OC)c1OC.Cl | 16.4%
O=c1[nH]cnc2scc(-c3ccc(F)cc3)c12 | 7.52%

SMILES | hERG current change (%, negative = inhibition) at 1uM
CC(=O)CC(C)(C)n1nnc(-c2ccccc2)n1 | 8.01%
CC(OC(=O)Cn1c(C(F)(F)F)nc2ccccc21)C(=O)N1CCCc2ccccc21 (centres unmarked) | 3.46%
COc1ccc(S(=O)(=O)N2CCC(C(=O)NN3CCCCC3)CC2)cc1OC | 5.04%
COc1ccc(-c2ccc(SCC(=O)N3CCOCC3)nn2)cc1OC | 3.67%
COc1ccc(Nc2ncnc3ccccc23)cc1.Cl | 0.335%
O=[N+]([O-])c1cccc(OCC(O)CN2CCN(S(=O)(=O)c3cc(Cl)ccc3Cl)CC2)c1 (centres unmarked) | 8.34%
COc1cc2nc(Cl)nc(NCCO)c2cc1OC | 3.99%
CCOc1ccccc1NC(=O)CN(c1ccc(OC)cc1OC)S(=O)(=O)c1ccccc1[N+](=O)[O-] | 18.2%
O=C(Cc1csc(-c2cccc(Cl)c2)n1)Nc1cccc(S(=O)(=O)NC2=NCCC2)c1 | -0.269%
O=c1c2sccc2nc(SCc2cc(=O)n3ccccc3n2)n1Cc1ccccn1 | -7.07%
O=C(OC(C(=O)NCC1CCCO1)c1ccc(F)cc1)c1ccco1 (centres unmarked) | 2.06%
COc1ccc(NC(=S)N(Cc2cccc(Br)c2)CC2CCC(C(=O)O)CC2)cc1 (centres unmarked) | 0.519%
O=C(COc1ccc(Cl)cc1)NNC(=O)c1ccccc1C(=O)O | 7.24%
CCCNC(=O)NC(C(=O)OC)C12CC3CC(CC(C3)C1)C2 (centres unmarked) | -4.09%
O=C(CCC1CCCN(C(=O)c2ccc3cc[nH]c3c2)C1)N1CCN(c2ccccn2)CC1 (centres unmarked) | 10.3%
Cc1ccccc1N/N=C/c1sc(=O)n(Cc2cccc(C(=O)O)c2)c1Cl | 27.1%
CCN(CC)CC#CCC(O)(c1ccccc1)C1CCCC1.Cl (centres unmarked) | 4.6%
CC(c1ccccc1)N1CCN(C(=O)CCl)CC1.Cl (centres unmarked) | 9.75%
O=C(CC(SCCO)c1ccc2c(c1)OCO2)c1cccs1 (centres unmarked) | 1.04%
COc1ccc(O)c(-c2cc(C(F)(F)C(F)F)nc(-c3ccccc3)n2)c1 | 11.1%
O=C(C[n+]1cc(Br)cc(Br)c1)c1ccccc1.[Br-] | 12.6%
COc1cc(/C=C/C(=O)Nc2nc3ccc(S(=O)(=O)NC(C)C)cc3s2)cc(OC)c1OC | 1.16%

SMILES | hERG current change (%, negative = inhibition) at 1uM
Cc1c(C(=O)OCC(=O)N2CCCC2)cccc1[N+](=O)[O-] | 13.5%
Cc1ccc(COc2ccccc2-c2cc(C(=O)N/N=C/c3cccnc3)[nH]n2)cc1 | 4.14%
Cn1c(=O)c2c(ncn2CC(=O)OCC(=O)Nc2ccc(Cl)cc2Cl)n(C)c1=O | 5.38%
CSc1nc(-c2ccccc2)nn1C(=O)c1ccco1 | 10.5%
COc1ccc(-c2nc(SC(CC(=O)NCCO)c3cccs3)n[nH]2)cc1 (centres unmarked) | 6.37%
O=C(O)c1cccc(N2C(=O)c3ccc(Oc4ccc(Cl)cc4)cc3C2=O)c1 | 6.59%
Nc1cccc(P(=O)(c2ccccc2)c2ccccc2)c1 | 18.5%
COC(=O)C1=C(C)N(CC(C)C)C(=O)/C1=C\c1cccs1 | 8.55%
O=C(CSc1n[nH]c(-c2ccccc2O)n1)NC1CCCCC1 | 9.54%
O=C(COC(=O)c1ccc(F)cc1)Nc1nc2ccc([N+](=O)[O-])cc2s1 | 13.9%
CCC(C(=O)N1CCC(N2CCCCC2)CC1)n1nc(C)c2sc3ccccc3c2c1=O (centres unmarked) | -1.42%
COc1ccc(C(NC(=O)CN2CCCCCC2)c2ccc(OC)cc2)cc1 | -26.6%
CN(C)CCCCCCCCCCC(=O)/C=N/O.Cl | 7.17%
Cc1ccc(C2=[N+]([O-])C3(CCCCC/C3=N\NC(N)=O)N(O)C2(C)C)o1 (centres unmarked) | 9.7%
COc1ccc(C2Nc3ccccc3C(=O)N2c2ccc(F)cc2)cc1CSc1ccccn1 (centres unmarked) | 5.88%
C=C(C)c1cccc(C(C)(C)NC(=O)N2CC(C)OC(C)C2)c1 (centres unmarked) | 8.52%
CC1=NN(C(C#N)c2ccccc2O)C(C)(C)C1 (centres unmarked) | 11.1%
O=C(c1cc(-c2ccccc2)on1)N1CCN(Cc2ccc3c(c2)OCO3)CC1 | -27.1%
COc1cc(C(=O)NCC(c2ccco2)N2CCOCC2)cc(OC)c1OC (centres unmarked) | 18.3%
COc1cc(C(=O)Nc2ccc(Br)cc2C(=O)c2cc(OC)c(OC)c(OC)c2)cc(OC)c1OC | 10.6%
CCn1cc2nc(SCC(=O)Nc3ccc(F)cc3F)n(Cc3ccccc3)c(=O)c2n1 | 15.6%
Cc1[nH]c(=O)[nH]c1C(=O)CCCCC(=O)O | 3.63%

SMILES | hERG current change (%, negative = inhibition) at 1uM
Cc1cccc(C(=O)Oc2ccc(/C=N/NC(=O)c3ccccc3O)cc2)c1 | 9.11%
Cc1cccc(NC(=O)CCNS(=O)(=O)c2cccc3nsnc23)c1C | 15.4%
COCCNC(=O)C1CC(c2ccccc2[N+](=O)[O-])=NO1 (centres unmarked) | 18.3%
O=C(c1ccc(S(=O)(=O)N2CCCCC2)cc1)N1CCN(c2ccccc2)CC1 | -2.7%
O=C(Cn1nnc(-c2ccc(OCc3ccccc3F)cc2)n1)N1CCOCC1 | -0.681%
CC(C)(C)NC(=O)CN(C(=O)CSc1nnc(COc2ccccc2)o1)c1cccc(F)c1 | 0.821%
CNc1nc(OCC(F)(F)F)nc(N2CCOCC2)n1 | 12.8%
CCCc1cc(C(=O)NCCc2ccc(OC)c(OC)c2)no1 | -2.06%
O=C(COc1ncnc2cc(Cl)ccc12)c1ccccc1 | 17.1%
CCOC(=O)c1sc(NC(=O)c2ccncc2)c(C#N)c1C | 7.56%
Cn1c(N)c(C(C[N+](=O)[O-])c2c(F)cccc2Cl)c(=O)n(C)c1=O (centres unmarked) | 9.57%
O=C(CSc1ncnc2sc3c(c12)CCCC3)N1CCC(c2noc3ccc(F)cc23)CC1 | -5.7%
Cc1cc(C)cc(N(CC(=O)NC2CCCC2)C(=O)CNC(=O)c2ccco2)c1 | 11.1%
CCN(CC)CCCNC(=O)COc1ccc2oc3c(c2c1)CCCC3.Cl | 6.07%
COC(=O)c1ccc(C(=O)OC)c(NC(=S)N2CCN(c3ccccc3)CC2)c1 | 5.19%
Cc1cc(C)cc(N(CC(=O)NCc2ccco2)C(=O)c2snc(C(N)=O)c2N)c1 | 8.65%
CC[C@H](C)[C@H](NC(=O)CNC(=O)COc1cc2c(c3oc(=O)cc(C)c13)CCC(C)(C)O2)C(=O)O | 14.2%
Cc1nn(C(=O)c2ccco2)c(C)c1Sc1ccc(Cl)cc1 | 23.8%
COCc1ccc(CN2CCC(n3nccc3NC(=O)CCOc3ccccc3)CC2)o1 | 14.1%
CCOc1cc(CN2CCC(n3nccc3NC(=O)C3CC3)CC2)ccc1O | 5.94%

Source: publication PMC4336329 (PLoS ONE, 2015)
